# From US9533023B2, “EIF4E binding peptides” (Agency for Science, Technology and Research, priority 2010, dated 2017)
# For some assays here: At least one peptide structure holds a part that was inferred or is arguable (an end, a ring closure or a residue). For some assays here: At least one compound was matched to its structure with a doubt left. Square brackets hold non-standard residues; d marks the D form. Ends that are not written are not given here. Peptide text beside a SMILES is read from it. αMeF = C[C@](N)(Cc1ccccc1)C(=O)O; Ac5c = NC1(C(=O)O)CCCC1
# How the values were obtained:
# [1] = tested on: MCF-7 5′UTR_MYC_Gaussia reporter cell line; test: Cap-dependent translation cell-based assay (Gaussia luciferase); details: 24 hrs, 0.1-100 nM
# eIF4E [2] = target: T1, eIF4E (Homo sapiens, UniProt P06730); test: Isothermal titration calorimetry (ITC); type: binding; details: for binding enthalpy (ITC): PBS pH 7.4; for ΔΔG of modified peptide compared to its template peptide: vs unmodified template (Tr2 or eIF4G1); for fold improvement in Kd over the template/parent eIF4G1 peptide: relative to eIF4G1 14-mer
# T1 construct: Full length human eIF4E was expressed and purified; made in house
# T1 sequence (P06730 whole entry): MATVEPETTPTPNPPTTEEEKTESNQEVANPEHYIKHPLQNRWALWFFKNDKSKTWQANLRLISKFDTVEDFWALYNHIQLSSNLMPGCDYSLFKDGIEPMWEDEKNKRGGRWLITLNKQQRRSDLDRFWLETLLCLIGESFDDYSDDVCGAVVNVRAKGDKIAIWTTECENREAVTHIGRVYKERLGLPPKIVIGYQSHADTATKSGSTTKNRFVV
# [3] = tested on: MCF-7 (5′UTR_MYC_Gaussia) cells; test: Propidium iodide staining and FACS analysis; type: cell-based; details: TAT fused peptides 30 μM, 48 hrs; for cell cycle populations (sub G1, G1, S, G2), words: vs PBS mock
# Experimental: MCF-7 (5′UTR_MYC_Gaussia) cells were cultured in DMEM with 10% FCS. Two hundred fifty thousand cells were then seeded per well in 6-wells plates containing DMEM serum-free media overnight at 37° C. Before overnight incubation, cells were incubated at room temperature for 30 mins. […] A 1% DMSO and a PBS mock treatment was also carried out. Cells were harvested and fixed in 65% ethanol in PBS and incubated at 4° C. for 2 hrs. Cells were spun down and resuspended with Propidium iodide staining solution containing Rnase A. Cells were analyzed using LSR II (BD).
# eIF4E [4] = target: T1, eIF4E; test: Fluorescence-based thermal stability (thermal shift) assay, FTS; type: binding
# Description: Full length human eIF4E was expressed and purified as described in Brown, C.
# A fluorescence based thermal shift assay was used to screen and rank the rationally designed eIF4E binding derivative peptides. The fluorescent dye Sypro Red was used to monitor thermal denaturation of eIF4E. Binding of the dye molecule to eIF4E, as it unfolds due to thermal denaturation, results in a sharp increase in the fluorescence intensity. The midpoint of this transition is termed the Tm. The thermal shift assay was conducted in the iCycler Real Time Detection System (Bio-Rad, Hercules, Calif.). The system contains a heating/cooling device for accurate temperature control and a charge-coupled device (CCD) detector for simultaneous imaging of the fluorescence changes in the wells of the microplate. […] The final protein concentration was 10 μM. Protein samples were incubated with derivative peptides at a concentration of a 100 μM. The plate was heated from 20 to 90° C. with a heating rate of 1° C./min.
# where Ft is the fluorescence intensity at temperature T; Tm is the midpoint temperature of the protein-unfolding transition, Fpre and Fpost are the pretransitional and posttransitional fluorescence intensities, respectively, R is the gas constant, ΔHu is the enthalpy of protein unfolding, and ΔCpu is the heat capacity change on protein unfolding. In the absence of ligand, Tm=T0, ΔCpu=ΔC^T0pu, and ΔHu=ΔH^T0u.
# To calculate the ligand-binding affinity at Tm for the derivative eIF4E binding peptides, Eq. (2) was used:
# To compare binding affinities for the derivative peptides to eIF4E calculated from the thermal shift data, the binding affinity at temperature T (KL(T))) must be calculated. KL(T) can be calculated from KL(Tm) using Eq. (3A): […]
# where KL(T) is the ligand association constant at temperature T, and ΔHL(T) is the van't Hoff enthalpy of binding at temperature T. The value of ΔHL(T) was taken to be 5 kcal/mol.
molecule,measurement,setting,value
"CO[C@H]1C[C@@H]2CC[C@@H](C)[C@@](O)(O2)C(=O)C(=O)N2CCCC[C@H]2C(=O)O[C@H]([C@H](C)C[C@@H]2CC[C@@H](O)[C@H](OC)C2)CC(=O)[C@H](C)/C=C(\C)[C@@H](O)[C@@H](OC)C(=O)[C@H](C)C[C@H](C)/C=C/C=C/C=C/1C [Rapamycin, reference compound]",inhibition of cap-dependent translation (gaussia readout),[1],inhibited cap-dependent translation (gaussia readout) in a dose-dependent manner
CC(C)C[C@H](NC(=O)[C@H](CC(C)C)NC(=O)[C@](C)(Cc1ccccc1)NC(=O)[C@H](CCC(=O)O)NC(=O)[C@H](CCCNC(=N)N)NC(=O)[C@H](CC(=O)O)NC(=O)[C@H](Cc1ccc(O)cc1)NC(=O)[C@H](CCCNC(=N)N)NC(=O)[C@H](CCCCN)NC(=O)[C@H](CCCCN)NC(=O)[C@@H](NC(=O)CNC(=O)[C@H](CCCNC(=N)N)NC(=O)[C@H](CCCNC(=N)N)NC(=O)[C@H](CCCNC(=N)N)NC(=O)[C@H](CCC(N)=O)NC(=O)[C@H](CCCNC(=N)N)NC(=O)[C@H](CCCNC(=N)N)NC(=O)[C@H](CCCCN)NC(=O)[C@H](CCCCN)NC(=O)[C@H](CCCNC(=N)N)NC(=O)CNC(=O)[C@@H](N)Cc1ccc(O)cc1)[C@@H](C)O)C(=O)NC1(C(=O)N[C@@H](Cc2ccccc2)C(=O)N[C@@H](CCC(N)=O)C(=O)N[C@@H](Cc2ccccc2)C(=O)O)CCCC1 [TAT_eIF4G1_me5] (H-YGRKKRRQRRRGTKKRYDRE[αMeF]LL[Ac5c]FQF-OH),"entropy (calculated, ITC)",eIF4E [2]; 20° C.,0.015 kcal/mol
same,sub G1 population,[3],72%
same,"cell cycle populations (sub G1, G1, S, G2), words",[3],"reduces drastically the S, G1 and G2 population"
"CC(C)C[C@H](NC(=O)[C@H](Cc1ccccc1)NC(=O)[C@H](CCC(=O)O)NC(=O)[C@H](CCCNC(=N)N)NC(=O)[C@H](CC(=O)O)NC(=O)[C@@H](N)Cc1ccc(O)cc1)C(=O)N[C@@H](CC(C)C)C(=O)NC1(C(=O)N[C@@H](Cc2ccccc2)C(=O)N[C@@H](CCC(N)=O)C(=O)N[C@@H](Cc2ccccc2)C(=O)O)CCCC1 [Tr2_AIB3_A5C, YDREFLL5FQF]",Kd,"eIF4E [4]; FTS assay, read-out: Kd estimated (extrapolated) from thermal shifts",~1.45 µM
"CC(C)C[C@H](NC(=O)[C@H](CC(C)C)NC(=O)[C@](C)(Cc1ccccc1)NC(=O)[C@H](CCC(=O)O)NC(=O)[C@H](CCCNC(=N)N)NC(=O)[C@H](CC(=O)O)NC(=O)[C@@H](N)Cc1ccc(O)cc1)C(=O)NC1(C(=O)N[C@@H](Cc2ccccc2)C(=O)N[C@@H](CCC(N)=O)C(=O)N[C@@H](Cc2ccccc2)C(=O)O)CCCC1 [Tr2_me5_1, YDRE*LL5FQF]",binding enthalpy (ITC),eIF4E [2]; 20° C.,-16.07 to 0.2 kcal/mol
same,ΔΔG of modified peptide compared to its template peptide,eIF4E [2],~2.5 kcal/mol
same,eIF4E binding / Tm effect in FTS assay,"eIF4E [4]; 10 μM eIF4E, 100 μM peptide",Tm shift in eIF4E with a magnitude similar to the wild-type eIF4G1 peptide
"CC(C)C[C@H](NC(=O)[C@H](CC(C)C)NC(=O)[C@H](Cc1ccccc1)NC(=O)[C@H](CCC(=O)O)NC(=O)[C@H](CCCNC(=N)N)NC(=O)[C@H](CC(=O)O)NC(=O)[C@H](Cc1ccc(O)cc1)NC(=O)[C@H](CCCNC(=N)N)NC(=O)[C@H](CCCCN)NC(=O)[C@@H](N)CCCCN)C(=O)NCC(=O)N[C@@H](Cc1ccccc1)C(=O)N[C@@H](CCC(N)=O)C(=O)N[C@@H](Cc1ccccc1)C(N)=O [eIF4G1, reference compound]",binding enthalpy (ITC),eIF4E [2]; 20° C.,-9.7 ± 0.05 kcal/mol
"CC(C)C[C@H](NC(=O)[C@H](CC(C)C)NC(=O)[C@](C)(Cc1ccccc1)NC(=O)[C@H](CCC(=O)O)NC(=O)[C@H](CCCNC(=N)N)NC(=O)[C@H](CC(=O)O)NC(=O)[C@H](Cc1ccc(O)cc1)NC(=O)[C@H](CCCNC(=N)N)NC(=O)[C@H](CCCCN)NC(=O)[C@@H](N)CCCCN)C(=O)NC1(C(=O)N[C@@H](Cc2ccccc2)C(=O)N[C@@H](CCC(N)=O)C(=O)N[C@@H](Cc2ccccc2)C(=O)O)CCCC1 [eIF4G1_me5, KKRYDRE*LL5FQF] (H-KKRYDRE[αMeF]LL[Ac5c]FQF-OH)",binding enthalpy (ITC),eIF4E [2]; 20° C.,-14.45 ± 10.11 kcal/mol
same,Kd,"eIF4E [2]; 20° C., PBS pH 7.4, one-to-one binding model",0.00943 ± 0.00257 µM
same,fold improvement in Kd over the template/parent eIF4G1 peptide,eIF4E [2],~15.7 fold
same,ΔΔG of modified peptide compared to its template peptide,eIF4E [2],1.6 kcal/mol
same,fold increase of thermal shift over the original 14-mer eIF4G1 peptide,eIF4E [4]; relative to eIF4G1 14-mer,1.7 fold
YDREFLLGFQF-NH2 (C-terminus assumed) [Tr2],binding enthalpy (ITC),eIF4E [2]; 20° C.,-10.95 ± 0.13 kcal/mol
YGRKKRRQRRRGTKKRYDREFLLGFQF [TAT_eIF4G1],fold improvement in Kd over the template/parent eIF4G1 peptide,eIF4E [2],~2.7 fold
same,"cell cycle populations (sub G1, G1, S, G2), words",[3],large increase in the sub G1 population
